Laboratory results from the supplement of paper PMC4166925.
± gives the standard deviation of the averaged measurements. Whole data set: some 33,000 sequences, median “E-score (dimensionless, -0.5 to 0.5)” near -0.046, cut for the highest 2% near 0.36. The list shows a part of the results.
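Note: protein at 200 nM in PBS on universal double-stranded arrays.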

Each sequence was assayed on T1, SpTbr T-box DNA-binding domain (GST fusion) (assay: PBM E-score of 8-mer (E-score (dimensionless, -0.5 to 0.5)); Tbr is Tbrain of the sea star Patiria miniata (Pm) or the sea urchin Strongylocentrotus purpuratus (Sp); higher = stronger binding preference; most listed sequences are background and not binding sites). Settings: the construct has about 5 more residues each side.
T1 sequence: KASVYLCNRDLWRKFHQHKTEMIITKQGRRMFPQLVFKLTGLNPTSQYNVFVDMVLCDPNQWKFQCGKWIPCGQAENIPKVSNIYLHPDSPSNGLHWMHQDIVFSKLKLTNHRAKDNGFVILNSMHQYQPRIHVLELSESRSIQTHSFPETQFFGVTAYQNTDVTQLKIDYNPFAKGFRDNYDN
Procedure: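 Universal protein-binding microarray (Agilent AMADID 016060, 60-bp probes with a 35-bp variable region) incubated with 200 nM GST-fused Strongylocentrotus purpuratus Tbr T-box DNA-binding domain (residues 362-554) in PBS pH 7.5. Scored for every ungapped 8-mer (given with its reverse complement) as E-score (range -0.5 to 0.5; >0.45 counts as bound) and Z-score of median probe intensity. Two replicate arrays (datasets 1 and 2).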
For AAAACTCT, the “PBM E-score of 8-mer” value was -0.0653 ± 0.048.
For CACTCGCA, the “PBM E-score of 8-mer” value was 0.351 ± 0.0057.
In the case of ATTCACTG, the “PBM E-score of 8-mer” value is reported as 0.0169 ± 0.045.
In the case of AGCGTGCA, the “PBM E-score of 8-mer” value is reported as -0.0595 ± 0.016.
CTAATGGC was tested, and the “PBM E-score of 8-mer” value was 0.113 ± 0.049.
With CACCGGGG the “PBM E-score of 8-mer” value was -0.211 ± 0.025.
For GATACTGC, the “PBM E-score of 8-mer” value was -0.0565 ± 0.046.
In the case of AGACGTCC, the “PBM E-score of 8-mer” value is reported as -0.16 ± 0.0048.
In the case of ATCTGAAA, the “PBM E-score of 8-mer” value is reported as -0.116 ± 0.084.
CCCTGTAG was tested, and the “PBM E-score of 8-mer” value was -0.36 ± 0.056.
CGCTCGAA was tested, and the “PBM E-score of 8-mer” value was 0.0265 ± 0.066.
For GACAAGTA, the “PBM E-score of 8-mer” value was 0.181 ± 0.05.
In the case of ACAAACCG, the “PBM E-score of 8-mer” value is reported as 0.0539 ± 0.054.
In the case of AAACCACA, the “PBM E-score of 8-mer” value is reported as 0.0879 ± 0.052.
In the case of AGAGCTTC, the “PBM E-score of 8-mer” value is reported as -0.253 ± 0.028.
In the case of AGGTCCTG, the “PBM E-score of 8-mer” value is reported as -0.109 ± 0.031.
With ACGAAACG the “PBM E-score of 8-mer” value was 0.15 ± 0.041.
In the case of CACTCAAC, the “PBM E-score of 8-mer” value is reported as 0.1361 ± 0.00042.
In the case of GGTGGATA, the “PBM E-score of 8-mer” value is reported as -0.0132 ± 0.019.
For TAGATAAA, the “PBM E-score of 8-mer” value was -0.308 ± 0.026.
GACTAACC was tested, and the “PBM E-score of 8-mer” value was 0.0204 ± 0.03.
GCTGCTTA was tested, and the “PBM E-score of 8-mer” value was -0.0784 ± 0.055.
In the case of ACATAGTG, the “PBM E-score of 8-mer” value is reported as 0.206 ± 0.0082.
In the case of CCGTTTTA, the “PBM E-score of 8-mer” value is reported as -0.0769 ± 0.0085.
With CCAATTGG the “PBM E-score of 8-mer” value was -0.141 ± 0.074.
CGGCCCGA was tested, and the “PBM E-score of 8-mer” value was -0.146 ± 0.018.
With CAACCCCC the “PBM E-score of 8-mer” value was -0.118 ± 0.0024.
With CGAATAAG the “PBM E-score of 8-mer” value was -0.0861 ± 0.031.
CAACACGA was tested, and the “PBM E-score of 8-mer” value was 0.185 ± 0.0087.
In the case of CAAGTCCA, the “PBM E-score of 8-mer” value is reported as -0.11 ± 0.0099.
For AACGCAAG, the “PBM E-score of 8-mer” value was -0.0223 ± 0.0086.
With GTATCGTA the “PBM E-score of 8-mer” value was 0.0225 ± 0.15.
For ACCACGCC, the “PBM E-score of 8-mer” value was 0.163 ± 0.037.
In the case of GCCTACGA, the “PBM E-score of 8-mer” value is reported as -0.0302 ± 0.07.
TCGACCGA was tested, and the “PBM E-score of 8-mer” value was -0.169 ± 0.0017.
For AAGCAAGA, the “PBM E-score of 8-mer” value was -0.0292 ± 0.048.
With ACCATTGA the “PBM E-score of 8-mer” value was 0.0727 ± 0.061.
In the case of CTTATAGA, the “PBM E-score of 8-mer” value is reported as -0.095 ± 0.0066.
For TAAGTCAA, the “PBM E-score of 8-mer” value was -0.0474 ± 0.027.
For GACAATCC, the “PBM E-score of 8-mer” value was 0.0693 ± 0.021.
CAATTGGA was tested, and the “PBM E-score of 8-mer” value was -0.182 ± 0.04.
For ATGGTTTC, the “PBM E-score of 8-mer” value was -0.0274 ± 0.0044.
In the case of ACCGGGCG, the “PBM E-score of 8-mer” value is reported as 0.115 ± 0.046.
For ATGCTAGC, the “PBM E-score of 8-mer” value was -0.00369 ± 0.046.
With AGTACTGA the “PBM E-score of 8-mer” value was -0.0534 ± 0.012.
For AATCAGTC, the “PBM E-score of 8-mer” value was -0.0936 ± 0.015.
With CAGACCGC the “PBM E-score of 8-mer” value was -0.198 ± 0.051.
With ACTATCAG the “PBM E-score of 8-mer” value was 0.0352 ± 0.0071.
For CACATTCA, the “PBM E-score of 8-mer” value was 0.21 ± 0.041.
For AGATCTCG, the “PBM E-score of 8-mer” value was 0.0398 ± 0.011.
CCAAAAAC was tested, and the “PBM E-score of 8-mer” value was -0.0838 ± 0.018.
With ACGGCTGC the “PBM E-score of 8-mer” value was 0.0325 ± 0.034.
In the case of CTCAGGAG, the “PBM E-score of 8-mer” value is reported as -0.129 ± 0.05.
For CAGACTAG, the “PBM E-score of 8-mer” value was -0.246 ± 0.087.
CCATCGAA was tested, and the “PBM E-score of 8-mer” value was -0.263 ± 0.029.
In the case of CACCAGTG, the “PBM E-score of 8-mer” value is reported as 0.102 ± 0.04.
With CGCTGGAC the “PBM E-score of 8-mer” value was 0.0117 ± 0.034.
AGTTTCAC was tested, and the “PBM E-score of 8-mer” value was 0.287 ± 0.019.
With ATAATCGA the “PBM E-score of 8-mer” value was -0.102 ± 0.086.
In the case of CAGTTGGG, the “PBM E-score of 8-mer” value is reported as -0.0462 ± 0.058.
In the case of AGAGTGGG, the “PBM E-score of 8-mer” value is reported as -0.128 ± 0.066.
ACTTCCGC was tested, and the “PBM E-score of 8-mer” value was 0.0332 ± 0.13.
In the case of CAGTTCCC, the “PBM E-score of 8-mer” value is reported as 0.0834 ± 0.012.
With ACGCATAC the “PBM E-score of 8-mer” value was -0.0105 ± 0.01.
In the case of ACCGTCGC, the “PBM E-score of 8-mer” value is reported as 0.166 ± 0.037.
For ACATGACT, the “PBM E-score of 8-mer” value was -0.0828 ± 0.028.
In the case of CGCAGTCA, the “PBM E-score of 8-mer” value is reported as -0.0245 ± 0.0092.
For ACCTGTGG, the “PBM E-score of 8-mer” value was 0.239 ± 0.013.
In the case of CTATTGCA, the “PBM E-score of 8-mer” value is reported as -0.128 ± 0.029.
With GTACAAGA the “PBM E-score of 8-mer” value was -0.30546 ± 0.00023.
With AGCTGTTA the “PBM E-score of 8-mer” value was 0.267 ± 0.017.
With AGAACCCT the “PBM E-score of 8-mer” value was -0.224 ± 0.064.
CAAATAGA was tested, and the “PBM E-score of 8-mer” value was -0.161 ± 0.02.
With CTCCTAGA the “PBM E-score of 8-mer” value was -0.253 ± 0.008.
AAGCTGTA was tested, and the “PBM E-score of 8-mer” value was -0.0678 ± 0.059.
With ATTGAGCA the “PBM E-score of 8-mer” value was -0.268 ± 0.018.
In the case of AAAATGAC, the “PBM E-score of 8-mer” value is reported as 0.0806 ± 0.054.
ACCCTCGA was tested, and the “PBM E-score of 8-mer” value was 0.1 ± 0.027.
For ACATTAAT, the “PBM E-score of 8-mer” value was -0.219 ± 0.038.
In the case of CTTCAATC, the “PBM E-score of 8-mer” value is reported as 0.037 ± 0.033.
For CGGAGGGC, the “PBM E-score of 8-mer” value was -0.0279 ± 0.049.
In the case of AACCTAGC, the “PBM E-score of 8-mer” value is reported as -0.0309 ± 0.0034.
With CCGTTGGA the “PBM E-score of 8-mer” value was -0.109 ± 0.035.
AGAGAGAG was tested, and the “PBM E-score of 8-mer” value was 0.0384 ± 0.024.
ATAACCCA was tested, and the “PBM E-score of 8-mer” value was -0.0973 ± 0.043.
For GATTGTCA, the “PBM E-score of 8-mer” value was 0.248 ± 0.0068.
